The subject of this test is human ventricular trabeculae. The test is described as follows: Action potential recording and pro-arrhythmic score analysis in human ventricular trabeculae (hVT).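 Note: sharp microelectrode action potential recordings at 37°C in Tyrode-perfused trabeculae, 4 cumulative concentrations each applied 31 min, values averaged over last 30 APs, vehicle 0.1% DMSO as control.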 The following applies: 2Hz.

The structures appear in SMILES notation. Further values from the same series stand in other lists.

Regarding `O=C1NCCN1CCN1CCC(c2cn(-c3ccc(F)cc3)c3ccc(Cl)cc23)CC1` [SERTINDOLE, Sertindole], the “STV percentage change compared to vehicle control” value (from here on “STV percentage change”) is 98% (1.5-FOLD free ETPC (0.002µM)), -18% (15-FOLD free ETPC (0.002µM)), 29% (150-FOLD free ETPC (0.002µM)) and -32% (1500-FOLD free ETPC (0.002µM)).

On to `COc1cc(N)c(Cl)cc1C(=O)NC1CCN(CCCOc2ccc(F)cc2)CC1OC` (centres unmarked) [CISAPRIDE, Cisapride], for which the “STV percentage change” value runs as follows: (1-FOLD free ETPC (0.003µM)) 282%; (10-FOLD free ETPC (0.003µM)) 155%; (100-FOLD free ETPC (0.003µM)) 214%.

Consider `Cc1cccc(C)c1OCC(C)N` (centres unmarked) [MEXILETINE, Mexiletine], for which, for the setting “73-FOLD free ETPC (4.1µM)”, the “STV percentage change” value is given as 3767%.

With `COc1cc2nc(N(C)CCCNC(=O)C3CCCO3)nc(N)c2cc1OC` (centres unmarked) [ALFUZOSIN, Alfuzosin], the “STV percentage change” value was 8% (1.6-FOLD free ETPC (0.006µM)), 13% (17-FOLD free ETPC (0.006µM)), 10% (167-FOLD free ETPC (0.006µM)) and -4% (1667-FOLD free ETPC (0.006µM)).

As to `CC(C)(C)c1ccc(C(O)CCCN2CCC(C(O)(c3ccccc3)c3ccccc3)CC2)cc1` (centres unmarked) [TERFENADINE, Terfenadine], the “STV percentage change” value (1-FOLD free ETPC (0.009µM)) amounted to 56%, the “STV percentage change” value (11-FOLD free ETPC (0.009µM)) came out at 7%, the “STV percentage change” value (111-FOLD free ETPC (0.009µM)) is 26% and the “STV percentage change” value (1111-FOLD free ETPC (0.009µM)) is -2%.

For `Nc1nnc(-c2cccc(Cl)c2Cl)c(N)n1` [LAMOTRIGINE, Lamotrigine], the “STV percentage change” value is -6% (0.6-FOLD free ETPC (17µM)), 262% (6-FOLD free ETPC (17µM)), 1720% (18-FOLD free ETPC (17µM)) and 870% (59-FOLD free ETPC (17µM)).
